Screen size: about 410,000 compounds; about 6,400 (1.6%) were called active. Inconclusive means that the source gave no clear call. Such entries were picked first, then a sample of the others. The call rests on the fitted dose curve; in most records, active means well fitted inhibition curve with a large enough effect; inconclusive means small, poorly fitted or top-dose-only effect; inactive means no such curve, though single readings can be large or run the other way. Potencies of inconclusive entries are doubtful fits and often do not repeat.
molecular target: Glucagon-like peptide 1 receptor (Homo sapiens) (UniProt P43220); experiment: qHTS of GLP-1 Receptor Inverse Agonists (Inhibition Mode); conditions: HEK293 GLP-1R CRE-luciferase, luminescence, 24 h, GLP-1R form is constitutively active; series mostly up to 38.3 µM; further: nearly all actives have a fitted effect of over 55% in size
How it was run: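 Using stably transfected HEK293 (constitutively active GLP-1R, cAMP-luciferase reporter), compounds were incubated 24 hr and luciferase measured by luminescence.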
Potency means the concentration at half of the fitted maximal effect; tags describe the fitted curve by direction and shape.

UniProt P43220, sequence (P43220 whole entry, looked up): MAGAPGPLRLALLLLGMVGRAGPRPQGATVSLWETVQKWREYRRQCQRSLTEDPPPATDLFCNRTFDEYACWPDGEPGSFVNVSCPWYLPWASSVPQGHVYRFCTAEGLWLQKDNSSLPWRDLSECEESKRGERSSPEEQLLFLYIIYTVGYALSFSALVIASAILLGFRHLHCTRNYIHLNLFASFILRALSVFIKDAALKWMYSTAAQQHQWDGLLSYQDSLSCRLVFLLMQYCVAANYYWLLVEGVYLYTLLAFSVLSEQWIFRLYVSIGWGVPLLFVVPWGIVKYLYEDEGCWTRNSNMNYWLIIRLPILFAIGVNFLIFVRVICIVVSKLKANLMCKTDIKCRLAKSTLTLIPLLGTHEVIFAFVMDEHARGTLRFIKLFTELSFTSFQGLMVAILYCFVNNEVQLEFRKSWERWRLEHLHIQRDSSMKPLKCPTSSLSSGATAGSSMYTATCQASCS

Potency, inactive:
Cc1ccc2c(c1)-c1nc(-c3ccccc3)cc(-c3ccccc3)c1CO2
C[C@H](CO)N1C[C@H](C)[C@@H](CN(C)S(=O)(=O)c2ccc(Oc3ccccc3)cc2)OCc2cnnn2CCCC1=O
CCOC(=O)c1sc(NC(=O)C2=COCCO2)c(C#N)c1C
Cc1cccc(C)c1NC(=S)N(Cc1ccccc1)Cc1cccnc1

Potency, inconclusive:
COc1cc(C(=O)N(CCCN(C)C)c2nc3c(OC)cccc3s2)cc(OC)c1OC 3.16 µM [inhibitor, partial curve, poor fit]
Cc1ccc(S(=O)(=O)N2[C@@H](c3ccc(Cl)c(Cl)c3)C(C(=O)O)=C[C@H]2C(C)(C)C)cc1 10 µM [inhibitor, single point]
O=C(NC1CCCC1)c1ccc2c(c1)N(Cc1c(F)cccc1Cl)C(=O)c1ccccc1S2 11.2 µM [inhibitor, partial curve, poor fit]
CC(C)c1ccc(/C=N/NC(=O)c2ccccc2Cl)cc1 7.08 µM [inhibitor, partial curve, poor fit]
O=C(COC(=O)C1(c2ccccc2F)CCCC1)Nc1ncc(C(F)(F)F)cc1Cl 11.2 µM [inhibitor, partial curve]
COc1ccc(Nc2nnc(SCC(=O)NC3CCS(=O)(=O)C3)s2)cc1 (configuration not stated) 3.16 µM [inhibitor, partial curve, poor fit]
O=C(Nc1nnc(-c2ccc3c(c2)CCCC3)o1)C1COc2ccccc2O1 (configuration not stated) 31.6 µM [inhibitor, single point]
CC(NC(=O)Nc1ccc(F)cc1F)c1ccc2c(c1)OCO2 (configuration not stated) 28.2 µM [inhibitor, single point]
CCOC(=O)[C@]12CCC=C1N(Cc1cccc3ccccc13)C(=O)[C@H](CC(=O)NCC13CC4CC(CC(C4)C1)C3)C2 22.4 µM [inhibitor, single point]
CCN1C(=O)/C(=C/c2ccc(N3CCCC3)cc2)NC1=S 20 µM [inhibitor, single point]
CCOc1ccc(N(CC)S(=O)(=O)N2CCCC(C(=O)NCc3ccccc3OCC)C2)cc1 (configuration not stated) 2.82 µM [inhibitor, single point]
COc1ccc(C(NC(C)=O)c2cc(Cl)c3cccnc3c2O)cc1 (configuration not stated) 7.08 µM [inhibitor, partial curve, poor fit]
C/C(=N\Nc1cc(-c2ccccc2)nc(-c2ccc(Br)cc2)n1)c1cccc(N)c1 20 µM [inhibitor, single point]
OCC1(Cc2ccccc2)CCN(Cc2cc3ccccc3o2)CC1 2.51 µM [inhibitor, partial curve, poor fit]
Nc1ccc(CNC(=O)c2cc3cc(Cl)ccc3nc2N)cc1 3.55 µM [inhibitor, full curve, poor fit]
COc1ccc(OCC(O)Cn2c(=N)n(CCN3CCOCC3)c3ccccc32)cc1 (configuration not stated) 11.2 µM [inhibitor, partial curve, poor fit]
CCc1ccc(-c2nc(CN3CCCC(C(=O)NCc4ccccc4Cl)C3)c(C)o2)cc1 (configuration not stated) 10 µM [inhibitor, partial curve, poor fit]
CCCCOc1ccc(C(=O)N/N=C/c2ccc(OCCN3CCCCC3)c(OC)c2)cc1 3.55 µM [inhibitor, partial curve, poor fit]
COC(C(=O)N/N=C(\C)c1ccc(C(C)(C)C)cc1)c1ccccc1 (configuration not stated) 7.94 µM [inhibitor, single point]
S=C(Nc1ccccc1Cl)N1CCCC(c2ccccc2)=N1 28.2 µM [inhibitor, single point]
CCCCN(C)c1nc(-c2ccco2)c2c(c1C#N)CC(C)(C)OC2 28.2 µM [inhibitor, single point]
CCOC(=O)c1sc(NC(=O)c2ccccc2C(=O)O)c(C(=O)OCC)c1C 14.1 µM [inhibitor, single point]
COc1ccc(C(=O)Nc2ccc3c(c2)CCCN3S(=O)(=O)c2ccc(C)cc2)cc1 10 µM [inhibitor, single point]
CC(=O)c1cccc(NC(=O)C(OC(=O)c2cccc(S(=O)(=O)N(C)c3ccccc3)c2)c2ccccc2)c1 (configuration not stated) 11.2 µM [inhibitor, single point]
O=C(Nc1ccc(F)cc1)NC1CCN(Cc2c(F)cccc2Cl)CC1 12.6 µM [inhibitor, partial curve, poor fit]
CCc1ccc(CN(C)C(=O)c2cc(COc3ccc(-n4cncn4)cc3)on2)cc1 7.94 µM [inhibitor, partial curve, poor fit]
CC(=O)OCc1ccccc1Sc1ccccc1C(=O)NCc1ccccc1 6.31 µM [inhibitor, partial curve]
O=C(Oc1c(CN2CCOCC2)cc(Cl)c2cccnc12)c1ccccc1Cl 1 µM [inhibitor, full curve, poor fit]
CC(=Nc1ccc(O)cc1)c1sc2ccccc2c1O 10 µM [inhibitor, single point]
CC(NC(=O)CN(C)Cc1ccc(Br)cc1)c1ccccc1 (configuration not stated) 12.6 µM [inhibitor, partial curve, poor fit]
CN(C)c1nc(NCc2ccccc2)nc(SCC(=O)Nc2ccccc2Cl)n1 10 µM [inhibitor, partial curve, poor fit]
COC(=O)C1=C(C)NC(=O)/C1=C\c1cc(C)n(-c2ccccc2)c1C 12.6 µM [inhibitor, single point]
COc1ccc2c(c1)C(C)(Cc1ccc(C(=O)c3ccccc3)cc1)C(=O)N2 (configuration not stated) 10 µM [inhibitor, single point]

Source: PubChem BioAssay AID624417 (National Center for Advancing Translational Sciences (NCATS), 2012)
